Test results: the BET-seq Pho4 binding data (Le et al. 2018)
The other results are listed elsewhere or left out. Values were computed here from the reads of four pooled replicates and scatter widely.

target: T1, Pho4 (S. cerevisiae) (UniProt P07270); test: relative binding free energy (BET-seq); higher = weaker binding; details: reference: library average
T1 sequence: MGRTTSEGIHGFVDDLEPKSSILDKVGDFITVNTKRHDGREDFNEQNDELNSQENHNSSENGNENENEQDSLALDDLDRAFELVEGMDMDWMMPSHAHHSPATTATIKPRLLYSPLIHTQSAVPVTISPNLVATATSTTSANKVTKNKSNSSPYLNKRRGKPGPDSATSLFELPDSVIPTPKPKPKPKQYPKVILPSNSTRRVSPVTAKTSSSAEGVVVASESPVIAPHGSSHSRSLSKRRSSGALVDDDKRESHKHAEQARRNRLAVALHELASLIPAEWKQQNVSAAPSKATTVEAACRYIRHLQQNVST

Sequence | relative binding free energy [kcal/mol]
AGTTGCACGTGAGTGT | 0.24
GGTTTCACGTGTGTGC | 0.31
TTTAGCACGTGAGTAC | 0.07
TGAGGCACGTGGGTGA | -0.23
GGGCGCACGTGTTGTT | -0.06
GTAGACACGTGGGAGG | -0.01
TACTACACGTGGTGGG | 0.11
TAAATCACGTGTGGCT | 0.08
AGTGACACGTGATAGA | 0.17
CATGGCACGTGGGATA | -0.24
ATGATCACGTGTTTGA | 0.12
TGTTCCACGTGATAGA | 0.22
AAGTTCACGTGTTCAT | 0.36
GTGTTCACGTGTATTG | 0.23
TGTGGCACGTGGTCCA | -0.19
TTATACACGTGGCGTA | -0.08
AATTCCACGTGAGGGG | 0.38
AGTTGCACGTGAATTT | 0.18
GGGAACACGTGGTAGA | 0.12
GTGTGCACGTGACTTG | 0.14
TGGGGCACGTGCCTTG | -0.16
TGGTCCACGTGTTGCT | 0.01
CACGGCACGTGGAGGT | 0.02
ATTTCCACGTGTTTTA | -0.03
GTTGACACGTGCGTGG | 0.14

Sequence | relative binding free energy [kcal/mol]
CGTTTCACGTGTGGTT | 0.32
TGGGGCACGTGGTTTG | -0.13
TTACGCACGTGATGTT | 0
AGTCTCACGTGGGTAA | 0.18
ATATGCACGTGTTAGC | 0.01
TAAAGCACGTGGTTGG | -0.2
GCCATCACGTGGGGGG | -0.1
CGTATCACGTGGATTT | 0.28
TGGGCCACGTGGGGGC | -0.19
GCCATCACGTGGGGGT | -0.03
GTAGACACGTGGTTCT | 0.09
GGGGGCACGTGCGGAA | -0.2
AAAAGCACGTGTTATT | 0.02
GAGTGCACGTGGGTTC | -0.06
GCTTTCACGTGTTTTG | 0.3
TTTTCCACGTGGTCGG | -0.02
CAAGTCACGTGGAGTG | 0.06
GAGGTCACGTGACGTG | 0.17
CATGTCACGTGCTTGT | -0.09
TGGGTCACGTGTAAAG | 0.07
CTTGTCACGTGCGAGG | -0.03
GGTTGCACGTGTATGG | 0.07
AGGGCCACGTGCGGGT | -0.3
ATGTGCACGTGTCTGG | -0.16
GTCGTCACGTGGACGG | 0.13

Sequence | relative binding free energy [kcal/mol]
TGTGGCACGTGAAAGT | 0.11
AGGTTCACGTGATGCT | 0.41
TTATGCACGTGAGGGC | 0.2
GTCGTCACGTGTCGGT | 0.13
ACCGGCACGTGTGGGG | -0.15
GATAGCACGTGGGTCG | -0.1
GTTGTCACGTGCCAGT | 0.14
GTTTGCACGTGAGGAC | 0.27
GTTTACACGTGTCATA | 0.41
CCGGGCACGTGGTGGT | -0.21
GTGTGCACGTGCTTTT | -0.03
CGGGACACGTGCGTGG | 0
AGCGGCACGTGGGATT | -0.22
TTTGGCACGTGTATGC | -0.08
AAGATCACGTGGGCGA | 0.14
CATTGCACGTGTTGGA | 0
CGATGCACGTGTGTAA | 0.06
GGTGACACGTGAAGTA | 0.37
GAGTGCACGTGAGAGC | 0.3
TTGATCACGTGTTTGA | 0.1
GCGGGCACGTGGTTGT | -0.13
ATTGGCACGTGTCGCT | -0.1
TAGTGCACGTGGCGGA | -0.14
